Test results reported in PubChem BioAssay AID662 (National Center for Advancing Translational Sciences (NCATS), 2007).
In all, about 71,000 compounds went through this assay and about 1,800 (2.5%) were called active. This list was built around the results that the source calls inconclusive (neither active nor inactive); the mix of calls is not that of the screen. The call rests on the fitted dose curve; in most records, active means well fitted activation curve with a large enough effect in the signal ratio, with a control signal flat (not every such curve was filed as active); inconclusive means small, poorly fitted or top-dose-only effect, or effect the other way, or a change in a side signal; inactive means flat fitted curve, though single readings scatter; the % refers to the signal ratio. Potencies beside an inconclusive call are fits to weak or partial responses and may not hold up.
Potency means the concentration at half of the fitted maximal effect; tags describe the fitted curve by direction and shape.

Test: Cell signaling CRE-BLA (Fsk stim); on activity change, negative = inhibition: % of control where 0% means no effect
Details: CHO CRE-bla reporter (cAMP response element driving beta-lactamase), forskolin EC10, beta-lactamase ratio; activity change, negative = inhibition: at 38.2 µM (top of the series) unless noted
Summary of the method: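 CRE-bla CHO cells stimulated with EC10 NKH 477 (water-soluble forskolin) and compound titrations, 3 h at 37C; beta-lactamase read with CCF4 after 2 h at room temperature. Activity from 460/530 nm emission ratio, AC50 values for positive or negative modulation.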
In the case of `COc1cc(-c2nnc(SCc3cc(=O)oc4cc(C)ccc34)o2)cc(OC)c1OC`, the Potency is reported as inconclusive: 3.16 µM [rising, single point].
With `CCCN(CCC)CCCNS(=O)(=O)c1ccc2c(c1)oc(=O)n2C` the “activity change, negative = inhibition” value was inactive: 12.7%.
In the case of `Cn1cc(CN2CCc3ccccc3C2)c2ccccc21`, the activity change, negative = inhibition is reported as inconclusive: -20.9%.
With `CCN(C(=O)c1cn(CC)c(=O)c2cc(OC)c(OC)cc12)c1ccccc1C` the Potency was inconclusive: 10 µM [rising, single point].
In the case of `N#CCCn1c(=O)c(-c2cccs2)nc2cnc(OCc3ccccc3)nc21`, the Potency is reported as active: 1.26 µM.
With `CC(=O)CCc1c[nH]c2c(C(=O)O)cccc12` the “activity change, negative = inhibition” value was inactive: -1.13%.
In the case of `O=C(NCC(=O)N(Cc1cccs1)C(C(=O)NC1CCCC1)c1ccncc1)c1ccco1` (stereo unspecified), the “activity change, negative = inhibition” value is reported as inactive: 7.21%.
For `Cc1ccc(C)c(-n2nnnc2SCC(=O)c2ccc3c(c2)NC(=O)CO3)c1`, the activity change, negative = inhibition was inconclusive: 9.55%.
In the case of `O=C(NCCC1=CCCCC1)C1CCN(S(=O)(=O)c2cccs2)CC1`, the activity change, negative = inhibition is reported as inconclusive: 5.48%.
For `Cc1cc(C)nc(NC(=NCCc2c[nH]c3ccccc23)NC(=O)c2ccco2)n1`, the Potency was inconclusive: 6.31 µM [rising, partial curve].
In the case of `C[C@@]1(CO)[C@H](O)CC[C@]2(C)[C@@H]1CC[C@H]1C[C@H]3C[C@]12CC[C@]3(O)COC(=O)CN`, the activity change, negative = inhibition is reported as inactive: -5.58% [at 7.6 µM].
In the case of `Cc1nc2ccccn2c1P(=O)(N1CCCCC1)N1CCCCC1`, the activity change, negative = inhibition is reported as inconclusive: 2.14%.
For `CCOC(=O)c1c(C)[nH]c(C(=O)Cn2nnc(-c3ccccc3)n2)c1C`, the Potency was inconclusive: 2.51 µM [rising, full curve, poor fit].
For `C[N+](C)(N)CCC[N+](C)(C)N`, the activity change, negative = inhibition was inactive: -8.09% [at 7.6 µM].
For `CCN(CC)c1ccc(/C=N/n2nnnc2N)c(O)c1`, the activity change, negative = inhibition was inconclusive: 18.6%.
In the case of `O=C(O)C1CCN(S(=O)(=O)c2cccnc2)CC1`, the Potency is reported as inconclusive: 25.1 µM [rising, single point].
For `CCn1nnc(-c2ccccc2NC(=O)c2cc(OC)c(OC)c(OC)c2)n1`, the Potency was active: 2.51 µM.
For `CCC(C)NC(=O)c1c(C)cc(=O)oc1C` (stereo unspecified), the activity change, negative = inhibition was inconclusive: 1.17%.
In the case of `Cn1cccc1C(=O)N1CCC2(CCCN(C(=O)Nc3cccc(F)c3)C2)CC1`, the “activity change, negative = inhibition” value is reported as inactive: -14.5%.
For `CCC(OC(=O)C(NC(=O)c1ccccc1)c1ccccc1)C(=O)Nc1cc(C)on1` (stereo unspecified), the activity change, negative = inhibition was inconclusive: 22.8% [at 7.6 µM].
With `CCC(C)(C)n1nnnc1CN1CCN(c2nc3cc(OC)ccc3cc2C#N)CC1` the Potency was inconclusive: 5.01 µM [rising, partial curve].
With `COc1ccc(NC(=O)CN2CCC3(O)CCCCC3C2c2ccccc2OC)cc1` (stereo unspecified) the “activity change, negative = inhibition” value was inactive: -19.1%.
With `COc1ccc(C(=O)OCn2nnc3ccccc3c2=O)cc1OC` the activity change, negative = inhibition was inconclusive: 28.7%.
In the case of `COc1ccc(OC)c(NC(=O)c2cc3sccc3n2C)c1`, the “activity change, negative = inhibition” value is reported as inactive: 11.3%.
In the case of `CN1[C@H](Cc2ccccc2)C=C[C@]1(C)C(=O)NCC1CC1`, the Potency is reported as inconclusive: 12.6 µM [falling, partial curve].
For `O=C(O)CN1CCN(Cc2ccc(F)cc2Cl)C1=O`, the “activity change, negative = inhibition” value was inactive: 4.35%.
For `[N-]=[N+]=CC(=O)C(Cc1ccccc1)N1C(=O)c2ccccc2C1=O` (stereo unspecified), the activity change, negative = inhibition was inconclusive: -24.4%.
For `COc1ccccc1N1CCN(CC(=O)Nc2cccc(F)c2)CC1`, the activity change, negative = inhibition was inconclusive: -9.35%.
For `CN1CCN(c2ncc3nc(-c4ccc(Cl)cc4)c(=O)n(C)c3n2)CC1`, the Potency was inconclusive: 0.398 µM [rising, full curve].
With `N#Cc1cccc(-c2cncnc2NCc2cccs2)c1` the “activity change, negative = inhibition” value was inactive: 0.334%.
In the case of `COc1ccccc1N1CCN(C(=O)CSc2nc3ncnc(N)c3[nH]2)CC1`, the “activity change, negative = inhibition” value is reported as inactive: 4.57%.
In the case of `COc1cc(C2C(C(=O)N3CCOCC3)=C(C)NC3=C2C(=O)CCC3)ccc1OC(C)=O` (stereo unspecified), the “activity change, negative = inhibition” value is reported as inactive: 4.36%.
In the case of `CCC(C)Nc1nc2c(c(=O)n(C)c(=O)n2C)n1Cc1cccc(C)c1` (stereo unspecified), the Potency is reported as inconclusive: 10 µM [rising, single point].
In the case of `CN1CC(=O)NC1=NC(=O)C12CC3CC(CC(C3)C1)C2`, the activity change, negative = inhibition is reported as inconclusive: 9.09%.
For `CC(=O)O[C@@H]1C(=O)[C@@]2(C)[C@H](O)C[C@H]3OC[C@]3(OC(C)=O)[C@@H]2[C@H](OC(=O)c2ccccc2)[C@@]2(O)C[C@H](OC(=O)[C@@H](O)[C@@H](NC(=O)c3ccccc3)c3ccccc3)C(C)=C1C2(C)C` (stereo in doubt), the activity change, negative = inhibition was “inactive”.
For `CCOC(=O)c1ccccc1NC(=O)c1cc2sccc2n1C`, the Potency was inconclusive: 10 µM [rising, partial curve].
For `COCCn1c(=O)c(-c2cccc(C#N)c2)nc2cnc(Nc3ccccc3)nc21`, the Potency was inconclusive: 2 µM [rising, full curve].
With `Cc1ccc(S(=O)(=O)c2c(N)n(/N=C/c3ccco3)c3nc4ccccc4nc23)cc1C` the Potency was active: 10 µM.
In the case of `Nc1c2ccccc2nc2c(O)cccc12`, the “activity change, negative = inhibition” value is reported as inactive: 0.629% [at 17.1 µM].
For `CC(C)c1nc(N2CCOCC2)c(C#N)c2c1CCCC2`, the activity change, negative = inhibition was inconclusive: 8.36%.
For `COc1nnc(-c2ccc(N3CCOCC3)c(NC(=O)c3ccco3)c2)c2ccccc12`, the Potency was active: 2 µM.
In the case of `COCCn1c(=O)c(CCc2ccccc2)nc2cnc(N3CCOCC3)nc21`, the Potency is reported as active: 12.6 µM.
In the case of `O=C(c1ccccc1)N1CCCC(C(=O)N2CCCCCC2)C1` (stereo unspecified), the “activity change, negative = inhibition” value is reported as inactive: 2.32%.
In the case of `COC(=O)N1CCC2(CCN(Cc3ccccc3)CC2)CC1`, the “activity change, negative = inhibition” value is reported as inactive: 4.29%.
With `CCc1cc(=O)oc2c(C)c(O)c(CN(C)C)cc12` the Potency was inconclusive: 12.6 µM [rising, partial curve].
In the case of `CCOC(=O)N1CCN(C(=O)c2ccc(Cn3c(=S)[nH]c4cc5c(cc4c3=O)OCO5)cc2)CC1`, the activity change, negative = inhibition is reported as inconclusive: -21.6%.
In the case of `Cc1ccc(OCC(=O)Nc2cccc(-c3nnc(-c4ccccc4)o3)c2)cc1`, the activity change, negative = inhibition is reported as inconclusive: 6.84%.
For `Cc1ccc(NC(=O)CC2C(=O)NC3CCCCC3N2C(=O)c2ccc(F)cc2)cc1C` (stereo unspecified), the activity change, negative = inhibition was inconclusive: -32.1%.
For `COc1cccc(C2=NOC(C(=O)NCc3ccc(F)cc3)C2)c1` (stereo unspecified), the Potency was active: 12.6 µM.
For `Cn1c(NC(=O)c2ccccc2Br)cc(=O)n(C)c1=O`, the activity change, negative = inhibition was inconclusive: 19.8% [fluorescent].
In the case of `O=c1c(-c2ccccc2)nc2cnc(N3CCNCC3)nc2n1Cc1cccs1`, the Potency is reported as inconclusive: 0.794 µM [rising, full curve].
